{"source": "PubChem BioAssay AID1240", "about": "(Sanford-Burnham Center for Chemical Genomics, 2008)", "note": "The campaign covered roughly 50,000 compounds. About 800 (1.6%) showed an effect of 50% or more. The list shows a part of the results.", "data": [{"biological_target": "Bcl-2-like protein 10 (Homo sapiens) (UniProt Q9HD36)", "sequence (Q9HD36 whole entry, looked up)": "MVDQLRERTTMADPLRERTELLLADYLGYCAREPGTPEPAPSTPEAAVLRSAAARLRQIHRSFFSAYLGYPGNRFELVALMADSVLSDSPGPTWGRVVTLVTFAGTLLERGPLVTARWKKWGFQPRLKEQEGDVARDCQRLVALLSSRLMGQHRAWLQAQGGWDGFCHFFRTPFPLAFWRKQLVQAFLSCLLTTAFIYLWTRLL", "experiment": "TR3 peptide-Bcl-B binding displacers, biochemical primary FP assay, phenotype converters (AID 1240);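 further: 0% = Bcl-B with tracer peptide and DMSO and 100% = tracer peptide lacking Bcl-B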", "details": "GST-Bcl-B / FITC-TR3 peptide fluorescence polarization; stronger effect = higher value; compound at 3.75 mg/L", "units": {"displacement": "%"}, "values": [{"smiles": "COc1ccc(N(CC(=O)N2CCOCC2)S(=O)(=O)c2ccc(C)cc2)cc1", "displacement": 0.2}, {"smiles": "CCCOc1ccc(C(=O)N2CCN(c3ccc([N+](=O)[O-])cc3)CC2)cc1", "displacement": 0.8}, {"smiles": "On1c(-c2ccco2)nc2c1CCc1nonc1-2", "displacement": 15.9}, {"smiles": "COc1ccccc1N1N=C(c2ccc([N+](=O)[O-])cc2)CC1c1ccccc1", "note": "(stereo not given)", "displacement": -4.8}, {"smiles": "CCOc1c(C=C2C(=O)NC(=O)NC2=O)cccc1OC", "displacement": 8.1}, {"smiles": "O=C(/C=C/c1ccccc1)NC(=S)Nc1ccc(Br)cc1", "displacement": 6.2}, {"smiles": "Clc1ccc(-c2noc(COc3ccc4ccccc4c3)n2)cc1", "displacement": 10.5}, {"smiles": "O=S(=O)(NCc1ccc2c(c1)OCO2)c1cccs1", "displacement": -6.7}, {"smiles": "O=S(=O)(NCc1ccc2c(c1)OCO2)c1ccc(Br)cc1", "displacement": 38.4}, {"smiles": "Cc1ccc2c(-c3ccc([N+](=O)[O-])cc3)cc(=O)[nH]c2c1", "displacement": 14.1}, {"smiles": "COC(=O)c1c(C)oc2cc(Br)c(O)cc12", "displacement": 6.1}, {"smiles": "C=CCOc1ccc(/C=c2/sc3n(c2=O)C(c2ccc(OC)c(OC)c2)C(C(=O)OC)=C(C)N=3)cc1", "note": "(stereo not given)", "displacement": 106}, {"smiles": "Cc1ccc(S(=O)(=O)NC2=NCN(Cc3ccccc3)CN2)cc1", "displacement": -0.6}, {"smiles": "O=C(Nc1cccc(F)c1)c1ccc(I)cc1", "displacement": 7.1}, {"smiles": "Cc1ccc(OCC(=O)Nc2ccc(Nc3ccccc3)cc2)c(C)c1", "displacement": 1.8}, {"smiles": "O=C(c1ccc([N+](=O)[O-])cc1)N1CCN(CCCc2ccccc2)CC1", "displacement": -3.7}, {"smiles": "O=C(N/N=C/c1ccc(/C=N/NC(=O)Nc2ccccc2)cc1)Nc1ccccc1", "displacement": -8.5}, {"smiles": "O=C(NCC1CCCO1)c1cc2nc(-c3ccc(F)cc3)cc(C(F)(F)F)n2n1", "note": "(stereo not given)", "displacement": -1.9}, {"smiles": "COc1ccc2ccccc2c1C=Nc1ccc(Cl)c([N+](=O)[O-])c1", "displacement": -6.6}, {"smiles": "CC1=C(C(=O)Nc2ccc(Br)cc2)C(c2ccccc2F)NC(=O)N1", "note": "(stereo not given)", "displacement": -7.9}, {"smiles": "Cc1occc1C(=O)NCC1CCCO1", "note": "(stereo not given)", "displacement": 9.1}, {"smiles": "CCOC(=O)c1sc(NC(=O)CN2CCOCC2)c(C(=O)OCC)c1C", "displacement": -0.6}, {"smiles": "COc1ccc(N(CC(=O)Nc2ccc(Oc3ccccc3)cc2)S(C)(=O)=O)cc1", "displacement": 6.5}, {"smiles": "Cc1ccc(OCCOCCOc2ccc(Cl)cc2/C=C2/SC(=S)NC2=O)cc1", "displacement": -1.9}, {"smiles": "CCC(=O)NC(OCc1ccccc1)(C(F)(F)F)C(F)(F)F", "displacement": 10}, {"smiles": "COc1cc(/C=C2\\C(=O)NC(=O)N(c3ccc(F)cc3)C2=O)ccc1OCc1ccc(C(=O)O)cc1", "displacement": -1.7}, {"smiles": "O=C(CSc1n[nH]c(=O)[nH]c1=O)N/N=C/C=C\\c1ccccc1", "displacement": -3.3}, {"smiles": "FC(F)(F)c1nc2ccccc2n1CC#CCn1c(C(F)(F)F)nc2ccccc21", "displacement": -1.1}, {"smiles": "O=C(COC(=O)c1ccc(C#Cc2ccccc2)cc1)c1ccc(Br)cc1", "displacement": 1.7}, {"smiles": "CC(C)CN(CC(C)C)C(=O)/C=C/c1ccccc1", "displacement": 15}, {"smiles": "CC1S/C(=N/N=C/c2ccccc2Cl)NC1=O", "note": "(stereo not given)", "displacement": 1.2}, {"smiles": "O=C(CSc1nnc2c(n1)[nH]c1ccccc12)NCCO", "displacement": -3.3}, {"smiles": "CCOc1ccc(N2C(=O)CC(N3CCC(Cc4ccccc4)CC3)C2=O)cc1", "note": "(stereo not given)", "displacement": 5}, {"smiles": "O=C1NN(c2ccccc2)C(=O)/C1=C/c1cc([N+](=O)[O-])c(Cl)cc1Cl", "displacement": 9.5}, {"smiles": "CCCc1ccc(-c2csc(N)n2)cc1", "displacement": 2.2}, {"smiles": "CCN(c1nc(C)cc(OC)n1)S(=O)(=O)c1ccccc1", "displacement": -7.2}, {"smiles": "COc1ccc(CC(=O)Nc2ccc(Br)cc2)cc1OC", "displacement": 11.6}, {"smiles": "CCOC(=O)C1CCN(C2CC(=O)N(c3cccc(Cl)c3)C2=O)CC1", "note": "(stereo not given)", "displacement": 6.6}, {"smiles": "COc1ccc(C2=NN(c3nc(-c4ccc(OC)c(F)c4)cs3)C(c3ccc(OC)cc3)C2)cc1", "note": "(stereo not given)", "displacement": 4.1}, {"smiles": "C=COCCNC(=O)C(=O)Nc1ccc(C)cc1C", "displacement": -7.6}, {"smiles": "CCc1cc2c(N3CCCCC3)ncnc2s1", "displacement": -2.1}, {"smiles": "O=C1C(=Cc2ccccc2)C(=O)c2ccccc21", "displacement": 17.6}, {"smiles": "Cc1ccc(/C=C(\\C#N)c2nc(-c3ccc([N+](=O)[O-])cc3)cs2)o1", "displacement": 3.5}, {"smiles": "CCOc1cc(C(=S)N2CCOCC2)cc(Br)c1OC(=O)c1ccc([N+](=O)[O-])cc1", "displacement": -0.9}, {"smiles": "Cc1cc(C)cc(NC(=O)c2ccc(C)c([N+](=O)[O-])c2)c1", "displacement": 14.8}, {"smiles": "COc1cc(/C=N/n2nnnc2N)cc(OC)c1OC", "displacement": 9.1}, {"smiles": "Cc1ccccc1OCC(=O)O/N=C(\\N)c1cccnc1", "displacement": 2.5}, {"smiles": "Nn1c(N2CCOCC2)nc2ccccc21", "displacement": 3.1}, {"smiles": "CC(=O)Oc1cc(-c2nc3ccccc3c(=O)o2)cc(-c2nc3ccccc3c(=O)o2)c1", "displacement": 9.5}, {"smiles": "Cc1cc([N+](=O)[O-])ccc1N=Cc1cccc(O)c1O", "displacement": 3.7}, {"smiles": "O=C1C=C(Nc2ccc(Cl)cc2)CN1", "displacement": 11.6}, {"smiles": "COc1cc(N=Cc2c(O)n(C)c(=O)n(C)c2=O)cc(OC)c1OC", "displacement": -3.2}, {"smiles": "CN(C)CCSc1nc(O)c(-c2ccccc2)c(=O)[nH]1", "displacement": -4.8}, {"smiles": "CC1C(=O)C(C)C(c2ccc(Cl)cc2)NC1c1ccc(Cl)cc1", "note": "(stereo not given)", "displacement": -8.6}, {"smiles": "COc1ccc(CCN2C(=O)/C(=C\\c3ccc(C(C)C)cc3)SC2=S)cc1OC", "displacement": -0.4}, {"smiles": "CCCCCN(CCCCC)C(=O)c1ccccc1C(=O)Nc1ccccc1", "displacement": 15.4}, {"smiles": "Cc1c(NC(=O)COc2ccccc2[N+](=O)[O-])cccc1-c1nc2ncccc2o1", "displacement": -2.9}, {"smiles": "O=C(COc1ccccc1[N+](=O)[O-])Nc1ccc2oc(-c3ccc(Cl)cc3)nc2c1", "displacement": 5.7}, {"smiles": "O=C1NC(=S)S/C1=C/c1ccc(OCc2ccc(Cl)cc2)cc1", "displacement": 34.3}, {"smiles": "N/C(=N\\c1nc(C(F)(F)F)cc(=O)[nH]1)Nc1cccc2ccccc12", "displacement": -0.2}, {"smiles": "CCOC(=O)CC(=O)NC(C)(C)Cc1ccc(O)cc1", "displacement": -2.1}, {"smiles": "Cn1cc(/C=C2/SC(=Nc3ccccc3)NC2=O)c2ccccc21", "displacement": -2.7}, {"smiles": "O=c1cc(-c2cc(O)c3c(O)c4ccccc4c(O)c3c2O)c(=O)c2c(=O)c3ccccc3c(=O)c1=2", "displacement": 40.9}, {"smiles": "C/C(=N/N1CCN(Cc2ccccc2)CC1)c1ccc(Br)cc1", "displacement": -14.1}, {"smiles": "CCC(C)c1ccc(OCCOc2ccc(C=C3C(=O)NC(=S)NC3=O)cc2)cc1", "note": "(stereo not given)", "displacement": 7.7}, {"smiles": "CC12CC3(C)CC(C)(C1)CC(C(N)=O)(C2)C3", "displacement": 11.6}, {"smiles": "O=C(c1ccccc1)c1cc2c(cc1Br)OCCO2", "displacement": -2.3}, {"smiles": "O=C(NCCC(c1ccccc1)c1ccccc1)c1ccccc1[N+](=O)[O-]", "displacement": 5.4}, {"smiles": "COc1cc(/C=N/N2C(=O)C3C4C=CC(CC4)C3C2=O)cc(I)c1OC", "note": "(stereo not given)", "displacement": 18.1}, {"smiles": "CC1CCCN(C(=S)SCC(=O)c2cc(Br)cc(Br)c2O)C1", "note": "(stereo not given)", "displacement": 8.2}]}]}
